Our source for the binding values is publication PMC4466884.

Amino acid sequences for entries named in this document (tags omitted).
UniProt Q96RS0: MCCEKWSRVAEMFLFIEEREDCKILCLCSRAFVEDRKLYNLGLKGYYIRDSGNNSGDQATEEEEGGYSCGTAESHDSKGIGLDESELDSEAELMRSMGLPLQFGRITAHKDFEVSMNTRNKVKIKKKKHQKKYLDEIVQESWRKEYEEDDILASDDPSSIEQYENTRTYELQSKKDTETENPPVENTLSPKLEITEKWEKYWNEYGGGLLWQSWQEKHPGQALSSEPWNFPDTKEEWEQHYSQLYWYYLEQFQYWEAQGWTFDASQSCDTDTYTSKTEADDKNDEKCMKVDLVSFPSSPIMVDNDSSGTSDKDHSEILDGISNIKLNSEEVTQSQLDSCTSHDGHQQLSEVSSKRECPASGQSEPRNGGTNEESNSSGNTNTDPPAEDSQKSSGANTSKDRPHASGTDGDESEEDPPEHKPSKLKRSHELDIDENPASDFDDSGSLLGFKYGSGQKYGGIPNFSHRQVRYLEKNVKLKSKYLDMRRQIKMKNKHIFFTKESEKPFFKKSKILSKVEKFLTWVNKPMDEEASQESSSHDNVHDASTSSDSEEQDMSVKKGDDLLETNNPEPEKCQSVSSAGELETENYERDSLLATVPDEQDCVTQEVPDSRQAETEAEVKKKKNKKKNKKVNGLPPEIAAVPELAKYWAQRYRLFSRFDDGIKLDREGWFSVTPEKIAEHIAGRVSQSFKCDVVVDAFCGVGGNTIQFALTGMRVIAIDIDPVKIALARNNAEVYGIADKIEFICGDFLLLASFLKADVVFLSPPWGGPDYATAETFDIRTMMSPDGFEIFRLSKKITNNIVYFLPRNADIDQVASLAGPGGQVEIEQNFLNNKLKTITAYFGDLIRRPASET

The target of assay [1] is human Tgs1p, full-length (aa1-853), yeast two-hybrid fusion (human) (UniProt Q96RS0). Nature of the assay: two-hybrid; GAL4-BD baits (pGBKT7) and GAL4-AD preys (pGADT7) co-transformed into reporter strain PJ69-4A; 10-fold serial dilutions spotted on SDC-Trp-Leu and SDC-Trp-Leu-His (HIS3 reporter), 30 °C.
Assay [2] has as its target T1, Swm2p (synthetic with Mud2), yeast two-hybrid fusion (S. cerevisiae) (UniProt P40342).
T1 sequence: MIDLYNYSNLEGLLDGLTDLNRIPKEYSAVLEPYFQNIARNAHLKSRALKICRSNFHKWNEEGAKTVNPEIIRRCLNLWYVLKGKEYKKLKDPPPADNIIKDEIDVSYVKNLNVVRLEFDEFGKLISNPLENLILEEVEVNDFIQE
Described as above.

These are yes or no findings as the source states them, for the method shown. Some binding calls cover weakened binding; strength is not graded here. For some assays here: Sequences can lack the tags named with a protein.

With “human Tgs1p, full-length (aa1-853), yeast two-hybrid fusion (from UniProt Q96RS0 1-853)”, the figures for the binding entry in assay [1] and in assay [2] were “binds” and “no binding”, respectively.
